Laboratory results taken from PubChem BioAssay AID1768 (National Center for Advancing Translational Sciences (NCATS), 2009).
The campaign covered roughly 270,000 compounds. About 620 (0.23%) were called active. Inconclusive means that the source gave no clear call. Such entries were picked first, then a sample of the others. Calls follow the shape of the dose curve; as a rule, active = well fitted inhibition curve with a large enough effect in the polarisation, with a control signal flat (not every such curve was filed as active); inconclusive = small, poorly fitted or top-dose-only effect, or effect the other way, or a change in a side signal; inactive = no such curve, though single readings can be large or run the other way; the % refers to the polarisation. Potencies beside an inconclusive call are fits to weak or partial responses and may not hold up. A note “side channel” means that the fit belongs to a control or component signal, not to the main read-out.

Biological target: Menin (Homo sapiens) (UniProt O00255)
UniProt O00255, sequence (O00255 whole entry, looked up): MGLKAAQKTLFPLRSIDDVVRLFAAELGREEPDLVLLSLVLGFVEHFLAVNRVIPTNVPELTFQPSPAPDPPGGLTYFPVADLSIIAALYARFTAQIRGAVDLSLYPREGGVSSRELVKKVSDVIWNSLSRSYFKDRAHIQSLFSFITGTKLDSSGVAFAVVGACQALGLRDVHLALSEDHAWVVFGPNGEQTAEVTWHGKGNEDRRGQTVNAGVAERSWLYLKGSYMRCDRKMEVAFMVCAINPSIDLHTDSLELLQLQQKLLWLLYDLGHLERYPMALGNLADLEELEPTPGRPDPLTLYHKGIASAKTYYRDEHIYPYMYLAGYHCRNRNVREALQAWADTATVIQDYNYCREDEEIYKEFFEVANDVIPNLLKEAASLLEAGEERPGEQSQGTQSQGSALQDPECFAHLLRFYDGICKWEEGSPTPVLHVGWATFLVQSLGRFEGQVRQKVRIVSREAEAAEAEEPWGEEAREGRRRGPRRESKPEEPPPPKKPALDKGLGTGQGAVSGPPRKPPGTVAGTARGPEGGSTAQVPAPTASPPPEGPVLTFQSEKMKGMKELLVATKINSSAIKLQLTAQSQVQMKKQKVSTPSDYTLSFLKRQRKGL
Assay: qHTS Assay for Inhibitors Targeting the Menin-MLL Interaction in MLL Related Leukemias: Competition With Texas Red Labeled MLL-derived Mutant Peptide; as to FP activity change, negative = inhibition: % of control where 0% means no effect
Conditions: fluorescence polarization; FP activity change, negative = inhibition: at 61.6 µM (top of the series)
Potency is read from the fitted curve at half-maximal effect; tags tell the direction and shape of the fitted curve or compound fluorescence and quenching.

Potency, inactive:
COc1cccc(/C=N/Nc2ccnc(=O)[nH]2)c1O, COc1ccc(CCNC(=O)CSCc2ccc([N+](=O)[O-])cc2)cc1, O=C(C1CCCO1)N1CCN(Cc2c(O)ccc3ccccc23)CC1 (centres undefined), Cc1ccc(/C=C(\C#N)C(=O)Nc2c(C)cccc2C)s1, COc1cc(O)oc1C=Nc1ccc(Cl)cc1Cl, C=C(C)Cn1c(CCNC(=O)CC)nc2ccccc21, CCOC(=O)c1c(C)c[nH]c1C, CC(C)(C)NC(=O)c1cccc(NC(=O)Cc2cccs2)c1

Potency, inconclusive:
CSCC[C@H](NC(=O)OC(C)(C)C)c1nnc(SCc2ccc(F)cc2)o1 7.94 µM [fluorescent, side channel, full curve, poor fit], Cc1ccccc1CC(=O)c1ccc(O)c(C)c1O 25.1 µM [quencher, side channel, partial curve], Cc1oc(-c2cccc(Cl)c2)nc1CN1CCCC(C(=O)NC(C)c2ccc3c(c2)OCCO3)C1 (centres undefined) 2.82 µM [fluorescent, side channel, full curve], COc1ccccc1N1CCN(CC(O)c2c(C)[nH]c3ccccc23)CC1 (centres undefined) 28.2 µM [inhibitor, single point], CC1CCN(CCCNC(=O)c2coc3nc4ccccc4nc23)CC1 20 µM [inhibitor, single point], CCOc1cc(/C=C2\SC(=S)N(NC(=O)c3cccnc3)C2=O)ccc1O 7.94 µM [fluorescent, side channel, full curve], O=C(CCN1C(=O)c2cccc3cccc(c23)C1=O)Nc1ccccc1 14.1 µM [fluorescent, side channel, partial curve], Cc1cc2cc(CNC(=O)c3ccc(S(=O)(=O)N4CCCC4)cc3)ccc2n1C 31.6 µM [fluorescent, side channel, single point], O=C(/C=C/c1ccco1)Nc1nc(-c2ccccc2)cs1 20 µM [quencher, side channel, partial curve], CCOc1cc(/C=C(\C#N)C(=O)Nc2cccc(C(=O)O)c2)ccc1OCc1ccc(Br)cc1 5.01 µM [quencher, side channel, full curve], C[n+]1c2n(c3ccccc31)N=C(c1cc(C(C)(C)C)c(O)c(C(C)(C)C)c1)CS2 3.16 µM [fluorescent, side channel, full curve], N=c1oc2cc(O)ccc2cc1C(=O)Nc1ccc(F)cc1 25.1 µM [quencher, partial curve], Cc1ccc(C(OCC(O)CNC(C)c2ccccc2)c2ccccc2)cc1 (centres undefined) 10 µM [fluorescent, side channel, partial curve], COc1cc(OC)c(C2Nc3cccc4cccc(c34)N2)c(OC)c1 28.2 µM [quencher, side channel, partial curve], Cc1ccc(OCCNC(=O)c2cccc(Oc3ccc(C(F)(F)F)cc3[N+](=O)[O-])c2)cc1 3.98 µM [inhibitor, partial curve], CC(=O)Nc1ccc(S(=O)(=O)Nc2c(NC3CCCCC3)c3ccccc3oc2=O)cc1 39.8 µM [inhibitor, single point], COc1ccc2c(c1)[nH]c(=O)c1sc3ccccc3c12 39.8 µM [inhibitor, single point], CCC(C)NC(=O)c1n[nH]c(=O)c2ccccc12 (centres undefined) 39.8 µM [quencher, side channel, single point], Cc1ccc(CN2CCN(Cc3ccc(-n4cccn4)cc3C)CC2CCO)cc1 (centres undefined) 3.55 µM [inhibitor, partial curve], Cc1ccc2nsnc2c1S(=O)(=O)NCCc1c(C)[nH]c2ccc(F)cc12 28.2 µM [quencher, side channel, single point], CCC(C)(C)n1nnnc1CN1CCN(c2ccc(OC)cc2)CC1 1.78 µM [inhibitor, full curve, poor fit], O=[N+]([O-])c1cc(/C=N/NC(=S)Nc2ccccc2Cl)ccc1Cl 7.94 µM [quencher, side channel, full curve], CCN(CC)CCSc1nnc2c3cc(F)ccc3n(Cc3ccccc3)c2n1 39.8 µM [fluorescent, side channel, single point], COC(=O)N/N=C/c1sc(N2CCCCC2)nc1-c1cccs1 25.1 µM [quencher, side channel, single point], COc1ccc(OC)c(/C=N/N(CCC#N)C2=NS(=O)(=O)c3ccccc32)c1 39.8 µM [fluorescent, side channel, single point], Cc1nc(S/C(=C/c2ccc(-c3ccc(Cl)cc3)o2)C(=O)O)n[nH]1 11.2 µM [quencher, side channel, partial curve], COc1ccc(/C=N/Nc2ncnc3sc(C)c(C)c23)cc1 15.8 µM [quencher, side channel, partial curve], COc1ccc(/C=C/C(=O)c2ccc(OC)cc2O)cc1 10 µM [inhibitor, partial curve, poor fit], CCOc1ccccc1CN1CCCC(C(=O)Nc2cccc(-n3cccn3)c2)C1 (centres undefined) 10 µM [inhibitor, single point], COC(=O)CN1C(=S)N(c2ccc(Cl)cc2)C(=O)C1CC(=O)Nc1ccc(Cl)cc1 (centres undefined) 3.16 µM [quencher, side channel, full curve], CN(c1ccccc1)S(=O)(=O)c1ccc(NC(=O)c2cccs2)cc1 10 µM [quencher, side channel, partial curve], CC(=O)Nc1ccc(S(=O)(=O)N2CCN(c3cccc(C)c3C)CC2)cc1 7.94 µM [quencher, side channel, partial curve], COc1cccc(CN2CCN(C3CCN(c4ccccc4C)CC3)CC2CCO)c1 (centres undefined) 39.8 µM [fluorescent, side channel, partial curve], O=C(CSc1nnc(-c2cccnc2)o1)c1cc2ccccc2oc1=O 25.1 µM [quencher, side channel, single point], COc1cc(CNc2ccc3[nH]c(=O)[nH]c3c2)ccc1OCc1ccccc1Cl 22.4 µM [quencher, side channel, partial curve], O=C(Cn1nnc(-c2ccccc2Cl)n1)N/N=C/c1ccc(-c2cccc(Cl)c2)o1 39.8 µM [inhibitor, single point], COc1ccc(CCNc2cc(C)nc3c(-c4ccc(Cl)cc4)cnn23)cc1OC 15.8 µM [quencher, side channel, partial curve], O=C(NNC(=S)Nc1ccc(Br)cc1)c1ccccc1Br 25.1 µM [quencher, side channel, partial curve], O=C1C=C(Nc2ccccc2O)c2ccccc2C1=O 22.4 µM [quencher, side channel, single point], COc1cccc(NC(=O)N2CCCC2C(=O)NCc2ccc(Cl)cc2)c1 (centres undefined) 39.8 µM [quencher, side channel, single point], O=C(NCCc1ccccc1F)c1cccc2cccnc12 39.8 µM [fluorescent, side channel, single point], CCn1c(SCc2ccccc2Cl)nc2ccccc21 8.91 µM [inhibitor, partial curve], O=C(CCSc1ccccc1)N1CCN(c2ccccc2)CC1 17.8 µM [inhibitor, single point], CC(=O)Nc1ccc(NC(=O)c2ccc(NS(=O)(=O)c3cc(C(C)(C)C)cc(C)c3C)cc2)cc1 39.8 µM [inhibitor, single point], O=C(CCN1CCCO1)N1CCCC(N2CCN(c3ccccc3F)CC2)C1 (centres undefined) 22.4 µM [inhibitor, partial curve], CCOc1ccc(-n2c(C)c(C(C)=O)c3cc(OC(C)=O)ccc32)cc1 28.2 µM [fluorescent, side channel, partial curve], Cc1ccccc1N1CC(C(=O)Nc2nnc(SCC(=O)Nc3nccs3)s2)CC1=O (centres undefined) 14.1 µM [quencher, side channel, partial curve], N=C1N(/N=C/c2ccccc2)C(=Nc2ccccc2)C(=S)N1c1ccccc1 14.1 µM [quencher, side channel, partial curve], O=C(COC(=O)CCc1ccc(S(=O)(=O)N2CCOCC2)cc1)Nc1cccc(Cl)c1 31.6 µM [quencher, side channel, single point]

FP activity change, negative = inhibition, inactive:
CC(=O)N1CCN(c2ccc(NCc3ccc(C)s3)cc2)CC1 -4.1% [at 11.7 µM], CC(=O)N1CCN(c2ccc(NCc3ccc(F)cc3)cc2)CC1 -9.36% [at 11.7 µM]
